Test results: the supplement of paper PMC9938546
Where a name gives a salt, the structure may show the parent alone. The list shows a part of the results. Many values rest on one well or one pass, so single values are uncertain.

Test system: HCT116-GFP
Experiment: HCT116-GFP viability (GFP intensity) relative to untreated control, monoculture; higher = less cancer cell killing
Conditions: culture: HCT116-GFP monoculture; 10 µM; 72 h
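Note: viability estimated indirectly by image-based GFP quantification with live-cell imaging of the constitutively GFP-expressing human colorectal cancer line, no immune cells added.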

Compound	HCT116-GFP viability
C[C@H]1O[C@H](O[C@H]2[C@H](O)[C@@H](O)[C@@H](O[C@H]3[C@H](O)[C@@H](O)C(O)O[C@@H]3CO)O[C@@H]2CO)[C@H](O)[C@@H](O)[C@@H]1N[C@H]1C=C(CO)[C@@H](O)[C@H](O)[C@H]1O (some centres not stated) [Acarbose]	109%
CN1CCC(=C2c3ccccc3C=Cc3ccccc32)CC1 [Cyproheptadine hydrochloride]	76.6%
N=C(N)NC(=N)NCCc1ccccc1 [Phenformin hydrochloride]	83.9%
CC(C)(C)NC[C@@H](O)COc1cccc2c1CCCC2=O [(+) -Levobunolol hydrochloride]	92.4%
CO[C@H]1/C=C/O[C@@]2(C)Oc3c(C)c(O)c4c(O)c(c(/C=N/N5CCN(C6CCCC6)CC5)c(O)c4c3C2=O)NC(=O)/C(C)=C\C=C\[C@H](C)[C@H](O)[C@@H](C)[C@@H](O)[C@@H](C)[C@H](OC(C)=O)[C@@H]1C [Rifapentine]	78.2%
O=C(O)Cc1ccc(-c2ccccc2)cc1 [Felbinac]	96%
C[C@@H]1C[C@H]2[C@@H]3C[C@H](F)C4=CC(=O)C=C[C@]4(C)[C@@]3(F)[C@@H](O)C[C@]2(C)[C@@]1(O)C(=O)CO [Flumethasone]	100%
O=C(O)c1cn(-c2ccc(F)cc2)c2cc(N3CCNCC3)c(F)cc2c1=O [Sarafloxacin]	93.1%
C[N+]1(C)CCC(OC(=O)C(O)(c2ccccc2)C2CCCC2)C1 (configuration not stated) [Glycopyrrolate]	88.2%
N#Cc1ccc(C(c2ccc(C#N)cc2)n2cncn2)cc1 [Letrozole]	105%
Clc1ccc(CCC(Cn2ccnc2)Sc2c(Cl)cccc2Cl)cc1 (configuration not stated) [Butoconazole nitrate]	70.3%
CN1CCN(C2=Nc3ccccc3Oc3ccc(Cl)cc32)CC1 [Loxapine succinate]	105%
N=C(NCCCCCCNC(=N)NC(=N)Nc1ccc(Cl)cc1)NC(=N)Nc1ccc(Cl)cc1 [Chlorhexidine]	24.3%
NCc1ccccc1CC(=O)N[C@@H]1C(=O)N2C(C(=O)O)=C(CSc3nnnn3CC(=O)O)CS[C@H]12 [Ceforanide]	89.4%
CC(=O)Oc1ccccc1C(=O)Nc1ncc([N+](=O)[O-])s1 [Nitazoxanide]	61.3%
CC(N/C(=N\C#N)Nc1ccncc1)C(C)(C)C (configuration not stated) [Pinacidil]	92.3%
CCCCC(O)c1ccccc1 (configuration not stated) [Fenipentol]	96.3%
CCN(CC)CCOC(=O)C1(C2CCCCC2)CCCCC1 [Dicyclomine hydrochloride]	101%
CN(C)CCCN1c2ccccc2Sc2ccc(C(F)(F)F)cc21 [Triflupromazine hydrochloride]	31.8%

Compound	HCT116-GFP viability
COc1cc(C(=O)OCCCN2CCCN(CCCOC(=O)c3cc(OC)c(OC)c(OC)c3)CC2)cc(OC)c1OC [Dilazep dihydrochloride]	80.6%
O=C1c2c(O)cccc2Cc2cccc(O)c21 [Anthralin]	99.2%
Cc1ccc(N(CC2=NCCN2)c2cccc(O)c2)cc1 [Phentolamine hydrochloride]	86.2%
CCc1ccc(CCOc2ccc(CC3SC(=O)NC3=O)cc2)nc1 (configuration not stated) [Pioglitazone]	88.5%
CO[C@H]1/C=C/O[C@@]2(C)Oc3c(C)c(O)c4c(O)c(c(/C=N/N5CCN(C)CC5)c(O)c4c3C2=O)NC(=O)/C(C)=C\C=C\[C@H](C)[C@H](O)[C@@H](C)[C@@H](O)[C@@H](C)[C@H](OC(C)=O)[C@@H]1C [Rifampicin]	89.1%
Cc1c(Cl)cccc1Nc1ccccc1C(=O)O [Tolfenamic acid]	94%
CCCSc1ccc2[nH]c(NC(=O)OC)nc2c1 [Albendazole]	14.4%
CC[C@H]1OC(=O)[C@H](C)[C@@H](O[C@H]2C[C@@](C)(OC)[C@@H](O)[C@H](C)O2)[C@H](C)[C@@H](O[C@@H]2O[C@H](C)C[C@H](N(C)C)[C@H]2O)[C@](C)(O)C[C@@H](C)C(=O)[C@H](C)[C@@H](O)[C@]1(C)O [Erythromycin]	95.4%
c1ccc(CC2=NCCN2)cc1 [Tolazoline hydrochloride]	96.2%
CC(C)(Oc1ccc(CCNC(=O)c2ccc(Cl)cc2)cc1)C(=O)O [Bezafibrate]	99%
OCCN1CCN(CCCN2c3ccccc3Sc3ccc(C(F)(F)F)cc32)CC1 [Fluphenazine dihydrochloride]	48%
O=C(O)CCc1nc(-c2ccccc2)c(-c2ccccc2)o1 [Oxaprozin]	78%
Clc1ccc2c(c1)C(N1CCNCC1)=Nc1ccccc1O2 [Amoxapine]	101%
O=C1c2ccccc2C(=O)C1c1ccccc1 [Phenindione]	96%
COc1ccc(CC(C)NCC(O)c2ccc(O)c(NC=O)c2)cc1 (configuration not stated) [Formoterol fumarate]	90.1%
CCOC(=O)N1CCC(=C2c3ccc(Cl)cc3CCc3cccnc32)CC1 [Loratadine]	70.2%
COCCCC/C(=N\OCCN)c1ccc(C(F)(F)F)cc1 [Fluvoxamine maleate]	97.1%
COC(=O)[C@H](c1ccccc1Cl)N1CCc2sccc2C1 [Clopidogrel]	94.2%
